# Measured values taken from publication PMC12040169 (PLOS Biology, 2025).
# The list shows a part of the results.
# Tested on: T1, C. trachomatis L2/434/Bu expressing GFP (CTL2-GFP)
# T1 construct: L2/434/Bu GFP intracellular growth in HeLa cells
# Design: species or system HeLa; C. trachomatis total inclusion area by high-content imaging, normalised to DMSO
# Details: total inclusion area; 28.5 h, 10 µM; inhibitor
# Summary of the method: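 Following bulk GFP and resorufin fluorescence reads, infected cells were fixed, Hoechst-stained and imaged on a high-content platform. Inclusion total area and number per well served as growth proxies; nuclei counts indicated host viability. MICs were derived as for the fluorescence assay.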
row,Compound,% of control remaining
1,COc1ncc(-c2nccnc2N2CCN(C)CC2)c(OC)n1 [CBK036595],120.787
2,CCCCc1noc(CN2CCCC2C(=O)NCc2ccco2)n1 (centres unmarked) [CBK304036],25.8096
3,Cc1ccc(C(=O)N2CCN(C)CC2)c(N2CCOCC2)n1 [CBK106199],89.5749
4,Nc1ncc(-c2cccc3ccccc23)nc1N1CCC[C@@H]1CO [CBK063517],55.8862
5,Cc1cccc(C)c1NC(=O)CN(c1ccc(F)cc1)S(=O)(=O)c1ccc2c(c1)OCCO2 [CBK264878],98.0285
6,CCCN1CCC(CNC(=O)c2cc(C3CC3)nn2C)CC1 [CBK282536],115.721
7,NS(=O)(=O)c1ccc(NC(=O)CCC2COc3ccccc3O2)cc1 (centres unmarked) [CBK267696],96.245
8,COc1ccc([C@@]23CCC(NC(=S)NCc4ccccc4)C[C@@H]2N(Cc2ccccc2)CC3)cc1 (some centres unmarked) [CBK028140],51.7665
9,Cc1cccc(-c2ccc(CC3(C(N)=O)CCN(C(=O)Cc4ccccc4)CC3)cc2)c1 [CBK285780],105.238
10,O=C(c1ccccc1F)N1C2CCC1CC(O)(c1cccnc1F)C2 (centres unmarked) [CBK284420],85.084
11,O=C(CSCc1ccc(Cl)c(Cl)c1)Nc1cccnc1 [CBK268542],86.6173
12,COc1ncc(-c2nccnc2NCc2cccnc2)c(OC)n1 [CBK036817],139.109
13,Cn1ncc2c(NCCCN3CCCC(CO)C3)nc(C(C)(C)C)nc21 (centres unmarked) [CBK307082],65.1706
14,COc1ccc(-c2nc(Nc3cccc(C(F)(F)F)c3)sc2CC(=O)O)cc1OC [CBK131693],67.1769
15,Cc1cc(C)n(CCCNC(=O)N2CCC(c3nccs3)CC2)n1 [CBK304088],33.0193
16,CC(C)(C)C1=CC2=NC3(CCC3)C3C[C@](O)(COCc4ccccc4)[C@@H](O)[C@@H]3N2O1 (some centres unmarked) [CBK303259],55.617
17,O=c1[nH]c(=O)c2cc(S(=O)(=O)Nc3ccc(Cn4ccnc4)cc3)ccc2[nH]1 [CBK286383],76.1354
18,CCN(CCC(C)c1ccccc1)CCN(C)C (centres unmarked) [CBK261914],100.896
19,CCOC(=O)c1sc(NC(=O)C2CCCO2)c(C(N)=O)c1C (centres unmarked) [CBK058830],45.0014
20,CCC(CO)Nc1nccnc1-c1ccoc1 (centres unmarked) [CBK088756],151.185
21,Fc1ccc(-c2nccnc2NCc2ccncc2)cc1Cl [CBK037422],78.0122
22,Cc1ccc(Br)cc1S(=O)(=O)N1CCN(C(c2ccccc2)c2ccccc2)CC1 [CBK263433],104.856
23,Cc1cc(COc2nc3ccccc3nc2NCCC2=CCCCC2)no1 [CBK173982],54.2659
24,COC[C@@H]1OC[C@@]2(C)C3CC[C@@H](O)[C@@H](CC(=O)NCc4ccccc4)[C@]3(C)CC[C@H]2O1 (some centres unmarked) [CBK289574],102.262
25,Sc1nnc(COc2ccccc2)n1/N=C/c1ccccn1 [CBK265279],100.369

row,Compound,% of control remaining
1,c1ccc(COc2ccc3[nH]c4c(c3c2)CCNC42CCN(Cc3ccccc3-c3ccccc3)C2)cc1 (centres unmarked) [CBK039909],28.5192
2,CCc1nn(CC(=O)N(CC)CC)c(=O)c2cc3ccsc3n12 [CBK284132],53.1689
3,O=C(O)c1ccc(Sc2ccc(S(=O)(=O)c3ccc(C(=O)O)c(C(=O)O)c3)cc2)cc1 [CBK261253],99.3953
4,Cc1nnc(SCC(=O)NC2CC3CCC2C3)[nH]1 (centres unmarked) [CBK270239],99.0544
5,O=C1CCN(Cc2ccccc2)CCN1C(=O)C1CCCC1 [CBK284829],93.7597
6,O=[N+]([O-])c1ccc(N2CCN(S(=O)(=O)N3CCCC3)CC2)c(Cl)c1 [CBK264772],105.882
7,COc1cccc(/C=N\NC(=O)CN2CCN(Cc3ccccc3)CC2)c1O [CBK263106],102.872
8,CCNC(=O)CN1CCN(c2ccc(C#N)cc2C(F)(F)F)CC1 [CBK306112],80.3367
9,NNc1nccc(Nc2ccccc2C(=O)O)n1 [CBK263145],78.7251
10,O=c1[nH]c(=O)c2cc(S(=O)(=O)Nc3cccc(CCc4ccncc4)c3)ccc2[nH]1 [CBK286397],93.5697
11,COC(=O)c1cccc2c1CCCN2Cc1nnc(C2CC2)o1 [CBK304868],31.1657
12,O=C(NC[C@H]1O[C@@H](CC(=O)N2CCCC2)[C@H](O)[C@@H]1O)c1ccc(F)c(Cl)c1 [CBK288913],94.343
13,O=C(CCc1cccnc1)Nc1ccc(Oc2ccccc2)cc1 [CBK295168],110.282
14,COc1ccc(CN2CCC(O)CC2)c(OC)c1 [CBK261522],86.6002
15,Fc1cccc(-c2nc3cnccn3c2NCc2ccco2)c1 [CBK282323],100.512
16,Cc1cc2n(n1)[C@@H](C(F)F)C[C@@H](C1CCCN(C(=O)C(C)C)C1)N2 (some centres unmarked) [CBK284722],52.8558
17,O=C(Nc1ccccc1N1CCCNCC1)c1ccc2ccccc2c1 [CBK038927T],6.366
18,Cc1cc(NC(=O)c2ccc3ccccc3c2)nc2c1c(=O)oc1ccccc12 [CBK291122],108.051
19,O=C1/C(=C/c2ccc(OCc3cccc4ccccc34)cc2)SC(=S)N1Cc1cccnc1 [CBK264669],55.9452
20,Cc1ccc(/C=C(\NC(=O)c2ccccc2)C(=O)N2CCCC2C(=O)O)cc1 (centres unmarked) [CBK265649],98.367
21,COC(=O)c1ccc(CSc2nnc(-n3sc4ccccc4c3=O)s2)cc1 [CBK116502],87.7298
22,N#Cc1ccccc1NC(=O)CN1CCCCCC1 [CBK270088],114.171
23,c1ccc(-c2nnc3ccccc3c2NCCCN2CCOCC2)cc1 [CBK066892],90.0371
24,Cc1ccc(C(CC(=O)N2CCN(Cc3ccccc3)CC2)c2ccccc2)c(O)c1C (centres unmarked) [CBK262214],99.5726
25,CCOc1cc(S(=O)(=O)NCCCN2CCOCC2)ccc1Br [CBK270111],102.62
